Among all 410,000 compounds or so, about 7,200 (1.8%) were called active. Inconclusive means that the source gave no clear call. Such entries were picked first, then a sample of the others. The call rests on the fitted dose curve; in most records, active means well fitted activation curve with a large enough effect; inconclusive means small, poorly fitted or top-dose-only effect, or another doubt; inactive means no such curve, though single readings can be large or run the other way. Potencies of inconclusive entries are left out as doubtful fits.
Assay: qHTS of TDP-43 Inhibitors; further: nearly all actives have a fitted effect of over 50% in size; on growth rescue (activation): % of control where 0% means no effect
Conditions: TDP-43 expressing yeast growth rescue, BacTiter-Glo, 24 h; growth rescue (activation): at 46.1 µM (top of the series) unless noted
Procedure, shortened: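 Growth rescue of TDP-43-toxic yeast measured as ATP luminescence (BacTiter-Glo). Cells grown to mid-log in raffinose, induced in galactose at OD600=0.02, exposed to compound 24 hr at 30 deg C.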
Potency means the concentration at half of the fitted maximal effect; tags describe the fitted curve by direction and shape.

| Compound | Potency | growth rescue (activation) |
| --- | --- | --- |
| CCc1ccc(C(=O)/C=C/c2cnn(C)c2C)s1 | inconclusive [activator, full curve] |  |
| C[C@@H]1CCC[C@H](C)N1NC(=O)c1ccc(Cl)c(S(N)(=O)=O)c1 | inconclusive [activator, partial curve] |  |
| Clc1cccc2sc(N3CCN(c4ccccc4)CC3)nc12 | active: 3.55 µM |  |
| Cc1ncc(S(=O)(=O)c2ccccc2)c(-c2ccc(Cl)cc2Cl)n1 | inconclusive [activator, single point] |  |
| Cc1cc(C)c(/C=C/c2onc(C)c2S(=O)(=O)N2CCC(C(=O)Nc3ccc(Cl)c(C(F)(F)F)c3)CC2)c(C)c1 |  | inactive: 0% |
| O=C(COc1ccccc1F)Nc1ccc(Cl)c(-c2nc3ccccc3[nH]2)c1 | active: 35.5 µM |  |
| CCN(Cc1ccc(Cl)s1)C(=O)c1cccc(OCc2c(C)noc2C)c1 | active: 35.5 µM |  |
| Cc1ccc(-n2c(=O)c3cccnc3n2CC(=O)NCc2ccc(F)cc2)cc1C | active: 12.6 µM |  |
| Cc1ccc(CNC(=O)CN2CCCN(Cc3ccc(F)cc3)S2(=O)=O)cc1 | inconclusive [activator, partial curve] |  |
| CCOc1ccc(NC(=O)Cn2cc(C(=O)c3ccc(CC)cc3)c(=O)c3ccc(C)nc32)cc1 |  | inactive: -17.1% |
| COc1ccc(-c2cc(C(F)(F)F)nc(NC3CCCC3)n2)cc1OC | inconclusive [activator, single point] |  |
| CC[C@H]1OC(=O)[C@H](C)[C@@H](O[C@H]2C[C@@](C)(OC)[C@@H](O)[C@H](C)O2)[C@H](C)[C@@H](O[C@@H]2O[C@H](C)C[C@H](N(C)C)[C@H]2O)[C@](C)(O)C[C@@H](C)CN(C)[C@H](C)[C@@H](O)[C@]1(C)O | inconclusive [activator, full curve] |  |
| COc1ccc(N2CC(C(=O)N/N=C/c3cccs3)CC2=O)cc1 (stereo not drawn) | inconclusive [activator, partial curve] |  |
| Cc1noc2ncnc(NCc3ccccc3Cl)c12 | inconclusive [activator, single point] |  |
| OCc1cccc(-c2csc(C(O)c3ccco3)n2)c1 (stereo not drawn) | inconclusive [activator, partial curve] |  |
| CC(OC(=O)Cc1coc2ccc3ccccc3c12)C(=O)NC(N)=O (stereo not drawn) |  | inactive: 0.227% |
| Cn1cnc([N+](=O)[O-])c1S(=O)(=O)Oc1cccc2ccccc12 | inconclusive [activator, full curve] |  |
| Clc1ccc(-c2nc3ccccn3c2Nc2ccc3c(c2)OCCO3)s1 |  | inactive: 1.62% |
| COc1cc(SC)ccc1C(=O)NC1CCCc2ccccc21 (stereo not drawn) | inconclusive [activator, single point] |  |
| COc1ccc(OC)c(-c2cc(C(=O)N3CCOCC3)no2)c1 |  | inactive: 16.1% |
| COc1ccccc1/C(C)=N/NC(=O)c1nnn(-c2nonc2N)c1C(C)C | inconclusive [activator, single point] |  |
| Cc1ccc2nc(NC(=O)CSc3nccn3Cc3ccccc3)sc2c1 | inconclusive [activator, single point] |  |
| Cc1oc2c(c1C(=O)Nc1ccc(C(=O)O)cc1)CCCC2 | active: 12.6 µM |  |

| Compound | Potency | growth rescue (activation) |
| --- | --- | --- |
| Cc1cccc(-c2nc(CS(=O)CC(=O)NCCCSC3CCCCC3)c(C)o2)c1 (stereo not drawn) | inconclusive [activator, partial curve, poor fit] |  |
| COc1ccc(CCNC(=S)Nc2ccc(OC)cc2)cc1 | inconclusive [activator, single point] |  |
| COc1ccc(-c2csc(C(C)(O)c3cccc(OC)c3)n2)cc1 (stereo not drawn) | inconclusive [activator, single point] |  |
| COc1cc(-c2nnn(CC(=O)NCc3ccccc3)n2)cc(OC)c1OC | inconclusive [activator, partial curve] |  |
| COc1cc([N+](=O)[O-])c2nc(C(=O)O)ccc2c1 | inconclusive [activator, partial curve] |  |
| Cc1ccc(NC(=O)c2cccs2)cc1NC(=O)c1ccco1 | inconclusive [activator, partial curve] |  |
| c1ccc(-c2nc(NC3CCCC3)c3ccccc3n2)cc1 | inconclusive [activator, single point] |  |
| CNC(=O)c1sc(N2N=C3/C(=C\c4ccccc4)CCCC3C2c2ccccc2)nc1C (stereo not drawn) | inconclusive [activator, partial curve, poor fit] |  |
| CCCCNC(=O)c1sc2nc(C)cc(COC)c2c1-n1cccc1 | inconclusive [activator, single point] |  |
| O=C(/C=C/c1cccc(F)c1)Nc1cc(S(=O)(=O)N2CCOCC2)ccc1Cl | inconclusive [activator, partial curve] |  |
| N/C(=N\OC(=O)CC1CCCCC1)c1ccccn1 | active: 15.8 µM |  |
| Cc1cc(F)ccc1S(=O)(=O)Nc1ccccc1C(=O)Nc1ccccc1-c1nc2ccccc2[nH]1 |  | inactive: 13% |
| COc1cccc(N/C(SC)=C(/C#N)C(N)=O)c1 | inconclusive [activator, single point] |  |
| COc1ccc(NC(=O)Nc2cn(CC(C)C)c(=O)c3ccccc23)c(OC)c1 | inconclusive [activator, partial curve] |  |
| CC(=O)Oc1ccc(/C=C2/CCc3ccccc3C2=O)cc1 | active: 11.2 µM |  |
| CC(=O)c1cccc(-c2ccc3c(c2)C(C)(Cc2ccccc2F)C(=O)N3)c1 (stereo not drawn) | inconclusive [activator, single point] |  |
| COc1ccc(-n2c(-c3ccc(Cl)cc3)cc3c2CC(C)(C)CC3=O)c(OC)c1 |  | inactive: 0% |
| CCOC(=O)c1c(C)oc2cc(Br)c(O)c(Br)c12 | active: 12.6 µM |  |
| CN(Cc1ccccc1Cl)C(=O)C1CC(=O)N(c2ccc3c(c2)OCCO3)C1 (stereo not drawn) | inconclusive [activator, single point] |  |
| C=CCOc1ccc2c(CC)cc(=O)oc2c1C | inconclusive [activator, partial curve] |  |
| Cc1cccc(OCCn2nnc3sc4c(c3c2=O)CCCC4)c1 | inconclusive [activator, partial curve] |  |
| CCOC(=O)c1c(C=O)c(C)n(Cc2ccc(C)cc2)c1C | inconclusive [activator, single point] |  |
| O=C(CCl)N1CCN2C(=O)c3ccccc3C12c1ccc(Cl)cc1 (stereo not drawn) | inconclusive [activator, partial curve] |  |

| Compound | Potency | growth rescue (activation) |
| --- | --- | --- |
| CCCCNc1c(-c2ccc(OC)c(SC(C)CC)c2)nc2ccc(Cl)cn12 (stereo not drawn) | inconclusive [activator, single point] |  |
| Cc1c(C(=O)Nc2ccc(F)cc2F)nnn1-c1ccccc1Br | active: 31.6 µM |  |
| Cc1cccnc1Nc1nc(-c2ccccc2)cs1 | active: 15.8 µM |  |
| O=C(NCCSCc1ccco1)Nc1cc(Cl)cc(Cl)c1 | inconclusive [activator, single point] |  |
| CCN(CC)S(=O)(=O)c1cc(C(=O)OCC(=O)Nc2ccc(-c3nc4ccc(C)cc4s3)cc2)ccc1F | inconclusive [activator, single point] |  |
| CCCOc1ccc(F)cc1-c1cc(C(=O)NCc2cccc(C(F)(F)F)c2)[nH]n1 | inconclusive [activator, partial curve] |  |
| CCCCNC(=O)CSc1c2c(nc3ccc(Cl)cc13)CCCC2 | inconclusive [activator, partial curve] |  |
| Cc1cccc(C)c1NC(=O)c1ccc2nc(CCc3ccccc3)oc2c1 | active: 12.6 µM |  |
| CCCCN(C)S(=O)(=O)c1ccc(C(=O)Nc2nnc(CSC)o2)cc1 | inconclusive [activator, single point] |  |
| Cn1c(=O)n(C)c2cc(/C=N/NC(=S)NCc3ccccc3)ccc21 | inconclusive [activator, partial curve, poor fit] |  |
| CC1(C)CC2(CCO1)OC(=O)CC2C(=O)NCCc1ccccc1 (stereo not drawn) |  | inactive: 21.5% |
| CC(C)(O)CC[C@@H](O)[C@](C)(O)C1CC[C@@]2(O)C3=CC(=O)[C@@H]4C[C@@H](O)[C@@H](O)C[C@]4(C)C3CC[C@]12C (stereo partly drawn) |  | inactive: 19.7% |
| COc1ccc(OC)c(N=c2ssnc2Cl)c1 |  | inconclusive: -93.1% [activator] |
| Clc1cccc(Cc2c(-c3cccc(Br)c3)nc3c4ccccc4ccn23)c1 |  | inactive: 20.1% |
| COc1ccc(NC(=O)C2=C(C)Nc3nc(SC)nn3C2c2cc(OC)ccc2OC)cc1 (stereo not drawn) | inconclusive [activator, full curve, poor fit] |  |
| Cc1ccccc1N1C(=O)CC(Sc2nnc(-c3ccccc3)o2)C1=O (stereo not drawn) | inconclusive [activator, single point] |  |
| N#Cc1ccc(S(=O)(=O)N2CCCN(c3ccc(C(F)(F)F)cn3)CC2)cc1 | inconclusive [activator, single point] |  |
| O=C1COc2ccccc2N1Cc1ccccc1Cl | active: 22.4 µM |  |
| CCOC(=O)c1ccc(NC(=S)N(Cc2cccnc2)Cc2ccco2)cc1 | inconclusive [activator, single point] |  |
| O=C(COC(=O)/C=C/c1ccc(F)cc1)NC1CCCC1 |  | inactive: 13.4% |
| CSc1ccc(CN2C(=O)C(C)ON=C2c2ccccc2F)cc1 (stereo not drawn) | inconclusive [activator, single point] |  |
| Cc1cccc(C)c1-n1c(C)cc(/C=N/NC(N)=S)c1C | active: 11.2 µM |  |
